Data on 41 compounds can be found in the antibiotic and cytotoxicity screens of Wong et al. (2023).

SMILES strings stand for the structures. The list shows a part of the results.

One assay relates to HSkMC. As to the kind of experiment: cytotoxicity call (relative viability < 0.9). The conditions noted are these: 10 µM.
Another assay concerns HepG2. As to the kind of experiment: cytotoxicity call (relative viability < 0.9). The conditions noted are these: 10 µM.
A further assay concerns S. aureus RN4220. As to the kind of experiment: growth inhibition call (relative growth <= 0.2). The conditions noted are these: 50 µM.

With `COc1cccc(S(=O)(=O)N(C)C[C@@H]2Oc3ncc(-c4cccc(C(=O)N(C)C)c4)cc3C(=O)N([C@H](C)CO)C[C@@H]2C)c1`, the cytotoxicity call with HSkMC and in the assay with HepG2 was “inactive” in each case. In the assay with S. aureus RN4220, the growth inhibition call was “inactive”.
`COC(=O)c1c2oc(c1C(=O)OC)C(=O)N[C@H](Cc1ccccc1)Cn1cc(nn1)CNC(=O)[C@H](Cc1ccccc1)NC(=O)N[C@@H](CO)CC2`: the cytotoxicity call in the assay on HSkMC and in the assay with HepG2 was “inactive” throughout. Moreover, the growth inhibition call in the assay on S. aureus RN4220 was “inactive”.
In the case of `C[C@H]1CN([C@@H](C)CO)C(=O)Cc2cc(NS(=O)(=O)c3cn(C)cn3)ccc2O[C@@H]1CN(C)S(=O)(=O)c1ccccc1`, the cytotoxicity call in the assay with HSkMC and in the assay on HepG2 was “inactive” each time. Further, the growth inhibition call in the assay on S. aureus RN4220 is “inactive”.
Turning to `COc1ccc(NC(=O)Nc2ccc3c(c2)CC(=O)N([C@H](C)CO)C[C@H](C)[C@@H](CN(C)C(=O)Nc2ccc(C(F)(F)F)cc2)O3)cc1`, the cytotoxicity call with HSkMC and in the assay with HepG2 was “inactive” throughout. Besides, the growth inhibition call in the assay with S. aureus RN4220 is “inactive”.
In the case of `C[C@H](CO)N1C[C@H](C)[C@@H](CN(C)C(=O)c2ccncc2)Oc2cc(C#CC3(O)CCCC3)ccc2S1(=O)=O`, the cytotoxicity call in the assay on HSkMC and with HepG2 was “inactive” each time. Besides, the growth inhibition call in the assay on S. aureus RN4220 is “inactive”.
Consider `O=C(Nc1ccc(-c2nc3cc(NC(=O)c4ccccc4Cl)ccc3o2)cc1)c1ccccc1Cl`, for which the cytotoxicity call with HSkMC is “inactive”. Moreover, the cytotoxicity call in the assay with HepG2 is “active”. Also, the growth inhibition call with S. aureus RN4220 is “inactive”.
For `C[C@@H]1CN([C@@H](C)CO)C(=O)c2cc(N(C)C)ccc2O[C@H]1CN(C)S(C)(=O)=O`, the cytotoxicity call with HSkMC and with HepG2 was “inactive” throughout. Moreover, the growth inhibition call in the assay on S. aureus RN4220 is “inactive”.
With `O=c1[nH]cc(N2CCCCC2)c(=O)[nH]1`, the cytotoxicity call in the assay with HSkMC and in the assay on HepG2 was “inactive” each time. The growth inhibition call in the assay with S. aureus RN4220 is “inactive”.
Regarding `C[C@H](CO)N1C[C@H](C)[C@@H](CN(C)S(=O)(=O)c2cn(C)cn2)OCc2ccccc2-c2ccccc2C1=O`, the cytotoxicity call in the assay on HSkMC and in the assay on HepG2 was “inactive” in each case. For the same compound, in the assay on S. aureus RN4220, the growth inhibition call is “inactive”.
As to `C[C@@H]1CCCCO[C@H](CN(C)C(=O)c2ccncc2)[C@H](C)CN([C@@H](C)CO)C(=O)c2cc(NC(=O)C3CCCCC3)ccc2O1`, the cytotoxicity call in the assay on HSkMC and with HepG2 was “inactive” each time. For the same compound, the growth inhibition call in the assay on S. aureus RN4220 is “inactive”.
As to `C[C@H](CO)N1C[C@H](C)[C@H](CN(C)Cc2ccncc2)OCCCC[C@H](C)Oc2ccc(NC(=O)Nc3ccc(C(F)(F)F)cc3)cc2C1=O`, the cytotoxicity call in the assay on HSkMC was “inactive”. Also, in the assay on HepG2, the cytotoxicity call is “active”. The growth inhibition call in the assay with S. aureus RN4220 is “inactive”.
Regarding `C[C@@H]1CN([C@H](C)CO)C(=O)c2cc(NC(=O)CCN3CCOCC3)ccc2O[C@H]1CN(C)CC1CCCCC1`, the cytotoxicity call in the assay on HSkMC and in the assay with HepG2 was “inactive” each time. Also, in the assay on S. aureus RN4220, the growth inhibition call was “inactive”.
Regarding `CS(=O)(=O)N1Cc2cncn2C[C@H](COCC(=O)N2CCCC2)C1`, the cytotoxicity call with HSkMC and in the assay with HepG2 was “inactive” each time. The growth inhibition call with S. aureus RN4220 is “inactive”.
With `COc1ccc(CN(C)C[C@H]2OCCCC[C@@H](C)Oc3ccc(NC(=O)Nc4ccc(OC)cc4)cc3C(=O)N([C@H](C)CO)C[C@H]2C)cc1`, the cytotoxicity call in the assay on HSkMC is “inactive”. In the assay on HepG2, the cytotoxicity call was “active”. Further, the growth inhibition call with S. aureus RN4220 was “inactive”.
With `CN1C(=O)c2cc(NC(=O)C3CCC3)ccc2OC[C@@H]2O[C@H](CC(=O)NCCc3ccncc3)CC[C@@H]21`, the cytotoxicity call in the assay on HSkMC and in the assay on HepG2 was “inactive” each time. In addition, in the assay with S. aureus RN4220, the growth inhibition call is “inactive”.
Turning to `C[C@@H]1CN([C@@H](C)CO)C(=O)c2cc(-c3ccc(F)cc3)cnc2O[C@H]1CN(C)C(=O)Cc1ccccn1`, the cytotoxicity call in the assay with HSkMC and in the assay with HepG2 was “inactive” throughout. Further, the growth inhibition call with S. aureus RN4220 was “inactive”.
On to `O=C(NCCO)c1cc(C(=O)NCCO)cc(C(=O)NCCO)c1`, for which the cytotoxicity call in the assay on HSkMC and with HepG2 was “inactive” each time. Further, in the assay with S. aureus RN4220, the growth inhibition call is “inactive”.
Consider `COCC(=O)Nc1ccc2c(c1)[C@@H]1C[C@@H](CC(=O)N3CCOCC3)O[C@H](CO)[C@@H]1O2`, for which the cytotoxicity call in the assay with HSkMC and in the assay with HepG2 was “inactive” each time. Besides, the growth inhibition call with S. aureus RN4220 is “inactive”.
As to `Br.Cn1c(=O)c2c(ncn2C)n(C)c1=O`, the cytotoxicity call in the assay on HSkMC and in the assay on HepG2 was “inactive” in each case. Moreover, the growth inhibition call in the assay with S. aureus RN4220 was “inactive”.
For `COc1ccc(NC(=O)N(C)C[C@@H]2OCCCC[C@H](C)Oc3ccc(NC(=O)C4CCCCC4)cc3C(=O)N([C@H](C)CO)C[C@H]2C)cc1`, the cytotoxicity call in the assay with HSkMC and in the assay with HepG2 was “inactive” throughout. Further, the growth inhibition call with S. aureus RN4220 is “inactive”.
Turning to `C[C@H](CO)N1C[C@H](C)[C@@H](CN(C)C(=O)NC2CCCCC2)Oc2ccc(NC(=O)C3CC3)cc2C1=O`, the cytotoxicity call with HSkMC and in the assay on HepG2 was “inactive” throughout. Further, the growth inhibition call with S. aureus RN4220 is “inactive”.
As to `COc1ccc(S(=O)(=O)Nc2ccc3c(c2)C(=O)N([C@@H](C)CO)C[C@@H](C)[C@H](CN(C)C(=O)CCC(F)(F)F)OCCCC[C@@H](C)O3)cc1`, the cytotoxicity call with HSkMC and in the assay on HepG2 was “inactive” throughout. In addition, in the assay with S. aureus RN4220, the growth inhibition call was “inactive”.
Consider `O=C(O)C1=CCCNC1`, for which the cytotoxicity call in the assay with HSkMC and in the assay on HepG2 was “inactive” throughout. In addition, the growth inhibition call in the assay with S. aureus RN4220 was “inactive”.
Take `COc1ccccc1CNC(=O)C[C@H]1C[C@@H]2c3cc(NC(=O)NC4CCCC4)ccc3O[C@@H]2[C@H](CO)O1`: the cytotoxicity call in the assay with HSkMC and in the assay on HepG2 was “inactive” in each case. In addition, the growth inhibition call in the assay on S. aureus RN4220 is “inactive”.
With `CS(=O)(=O)N1[C@@H]2c3ccc(C4=CCCCC4)c(=O)n3C[C@H]1[C@H](CO)[C@H]2C(=O)N1CCOCC1`, the cytotoxicity call in the assay with HSkMC and in the assay on HepG2 was “inactive” each time. Further, in the assay on S. aureus RN4220, the growth inhibition call was “inactive”.
Turning to `O=C(Cc1ccncc1)NCC[C@@H]1CC[C@H](NC(=O)C2CCOCC2)[C@@H](CO)O1`, the cytotoxicity call in the assay on HSkMC and in the assay on HepG2 was “inactive” in each case. Besides, in the assay with S. aureus RN4220, the growth inhibition call was “inactive”.
Consider `O=C1O[C@H](c2ccccc2)[C@H](c2ccccc2)N2[C@H]1[C@@H](C(=O)N1CCCCCCC1)[C@]1(C(=O)Nc3ccc(C#CC4=CCCCC4)cc31)[C@H]2c1ccccc1OCCO`, for which the cytotoxicity call in the assay on HSkMC and in the assay with HepG2 was “inactive” in each case. Further, in the assay on S. aureus RN4220, the growth inhibition call was “inactive”.
For the compound `C[C@@H]1CN([C@@H](C)CO)C(=O)c2cc(NS(=O)(=O)c3cccs3)ccc2O[C@@H](C)CCCCO[C@H]1CN(C)C(=O)CCC(F)(F)F`, the cytotoxicity call with HSkMC and with HepG2 was “inactive” each time. The growth inhibition call with S. aureus RN4220 is “inactive”.
For the compound `CCOC(=O)[C@H](Cc1ccccc1)NC(=O)Cn1cc(C(=O)NO)nn1`, the cytotoxicity call with HSkMC and in the assay on HepG2 was “inactive” in each case. Further, in the assay on S. aureus RN4220, the growth inhibition call is “inactive”.
`c1cnc(N2CCN(Cc3ccc4c(c3)OCO4)CC2)nc1`: the cytotoxicity call in the assay with HSkMC and with HepG2 was “inactive” each time. Further, the growth inhibition call in the assay on S. aureus RN4220 was “inactive”.
With `Cc1noc(C)c1NC(=O)Nc1ccc2c(c1)C(=O)N([C@H](C)CO)C[C@@H](C)[C@@H](CN(C)S(=O)(=O)c1ccc(Cl)cc1)OCCCC[C@H](C)O2`, the cytotoxicity call in the assay with HSkMC and in the assay with HepG2 was “inactive” throughout. Moreover, the growth inhibition call in the assay on S. aureus RN4220 is “inactive”.
`Cc1cc(C(=O)Nc2ccc3c(c2)C(=O)N(C)[C@H]2CC[C@H](CC(=O)NCC(F)(F)F)O[C@@H]2CO3)no1`: the cytotoxicity call in the assay with HSkMC and in the assay with HepG2 was “inactive” throughout. The growth inhibition call with S. aureus RN4220 was “inactive”.
As for `C[C@@H]1CN([C@@H](C)CO)C(=O)Cc2cc(NS(=O)(=O)c3ccc(Cl)cc3)ccc2O[C@@H]1CN(C)Cc1ccc(C(=O)Nc2ccccc2N)cc1`, the cytotoxicity call with HSkMC and in the assay with HepG2 was “inactive” each time. The growth inhibition call with S. aureus RN4220 is “inactive”.
On to `C[C@H](CO)N1C[C@H](C)[C@@H](CN(C)C(=O)NC2CCCC2)Oc2cc(Br)ccc2S1(=O)=O`, for which the cytotoxicity call in the assay on HSkMC and with HepG2 was “inactive” throughout. The growth inhibition call in the assay on S. aureus RN4220 is “inactive”.
Regarding `COc1ccc(S(=O)(=O)N(C)C[C@@H]2Oc3c(NC(=O)c4cnccn4)cccc3C(=O)N([C@H](C)CO)C[C@@H]2C)cc1`, the cytotoxicity call with HSkMC and in the assay on HepG2 was “inactive” throughout. Moreover, the growth inhibition call in the assay on S. aureus RN4220 is “inactive”.
Regarding `Cc1ccc(S(=O)(=O)Nc2ccc3c(c2)C(=O)N([C@H](C)CO)C[C@H](C)[C@@H](CN(C)Cc2ccc(Cl)c(Cl)c2)O3)cc1`, the cytotoxicity call in the assay on HSkMC is “inactive”. In the assay on HepG2, the cytotoxicity call is “active”. The growth inhibition call with S. aureus RN4220 is “inactive”.
As to `C[C@@H]1CN([C@H](C)CO)C(=O)c2cccc(NC(=O)Nc3cccc4ccccc34)c2O[C@@H]1CN(C)C(=O)Nc1ccc(F)cc1`, the cytotoxicity call in the assay with HSkMC is “active”. In addition, the cytotoxicity call in the assay with HepG2 was “inactive”. Moreover, the growth inhibition call in the assay on S. aureus RN4220 was “inactive”.
As for `C[C@@H]1CN([C@H](C)CO)C(=O)c2cc(C#Cc3ccccc3F)cnc2O[C@@H]1CN(C)C(=O)Cc1ccncc1`, the cytotoxicity call in the assay on HSkMC and with HepG2 was “inactive” in each case. The growth inhibition call in the assay on S. aureus RN4220 was “inactive”.
For `C[C@@H]1CN([C@@H](C)CO)C(=O)Cc2cc(NS(=O)(=O)c3ccc(F)cc3)ccc2O[C@@H]1CN(C)Cc1ccc(Cl)c(Cl)c1`, the cytotoxicity call with HSkMC and in the assay with HepG2 was “active” in each case. The growth inhibition call with S. aureus RN4220 is “inactive”.
For the compound `CCCCC/C=C\C/C=C\CCCCCCCCCC(=O)O`, the cytotoxicity call in the assay on HSkMC (human skeletal muscle cells) and in the assay with HepG2 was “inactive” each time. In the assay with S. aureus RN4220, the growth inhibition call was “inactive”.
Take `O=C(C[C@@H]1C=C[C@@H](NC(=O)Cc2ccccn2)[C@@H](CO)O1)NCCc1ccncc1`: the cytotoxicity call with HSkMC and in the assay with HepG2 was “inactive” throughout. Moreover, the growth inhibition call in the assay with S. aureus RN4220 was “inactive”.
